Results on 42 compounds are retold here after ChEMBL document CHEMBL4888484, “Replenishing the malaria drug discovery pipeline: Screening and hit evaluation of the MMV Hit Generation Library 1 (HGL1) against asexual blood stage Plasmodium falciparum ,using a nano luciferase reporter read-out” (2022).

The campaign covered roughly 150,000 compounds. About 540 (0.36%) showed an effect of 50% or more. Some of the results follow.

This test relates to Plasmodium falciparum. Put plainly: Primary screen in NF54 nanoGlo assay, in single point, at 2uM, 72h; a lower Z score goes with more inhibition. In kind it is functional, Erythrocyte. The settings on record: timepoint 72 hour.
For orientation: % Inhibition means the relative decrease from the control value, in per cent. Turning to `COCCCN(Cc1csc(COc2ccccc2C)n1)C(=O)C1CCCC1`, the “% Inhibition” value is -3% and the Z score came out at 0.55.

With `CC(=O)N[C@H]1[C@H](Oc2ccccc2)O[C@@H]2COC(c3ccccc3)O[C@H]2[C@@H]1OCC(=O)O` (some centres undefined), the “% Inhibition” value is -13% and the Z score came to 2.53.

For the compound `C[C@](O)(CNC(=O)C(=O)Nc1cccc(C(F)(F)F)c1)c1ccc2c(c1)OCO2`, the “% Inhibition” value is listed as -10% and the Z score was 1.77.

For `CN(CCO)C[C@@H]1CN(Cc2sc3ccccc3c2Cl)C[C@@H]1CO`, the “% Inhibition” value is -2% and the Z score was found to be 0.32.

On to `CCC(C)(C)C(=O)Nc1nnc(COC)s1`, for which the “% Inhibition” value is on record as -2% and the Z score came out at 0.41.

As for `CC1CN(C(=O)C2CCN(C(=O)Nc3cccc4ccccc34)CC2)CC(C)O1` (centres undefined), the “% Inhibition” value is 2% and the Z score is -0.46.

As for `COC[C@@H]1CN(S(=O)(=O)c2ccc(F)cc2)C[C@H]1c1ccncc1`, the “% Inhibition” value came out at 1% and the Z score is -0.16.

Take `CC(C)(C(=O)N1CC(=O)N(CCC(F)(F)F)C1)N1CCOCC1`: the “% Inhibition” value is recorded as -14% and the Z score was 1.72.

Take `COc1nc(-c2ccc(F)cc2)n(-c2ccc(NC(=O)c3ccc4c(c3)OCO4)cc2)n1`: the “% Inhibition” value is listed as -9% and the Z score was found to be 0.8.

Regarding `Cc1cc(C(=O)N2CC[C@H](C(F)(F)F)C2)n2nc(C)cc2n1`, the “% Inhibition” value is given as 9% and the Z score is given as -1.09.

`Cc1ccccc1Cc1nnn(C[C@H](O)COCc2ccccc2)n1`: the “% Inhibition” value is reported as -8% and the Z score was found to be 0.98.

Turning to `Oc1nc(Nc2ccc3ccccc3c2)nc(N2CCOCC2)n1`, the “% Inhibition” value was determined as 35% and the Z score was -3.91.

Regarding `Cc1[nH]c(CN2C[C@H]3CCC[C@@H](C2)N(C)C3)cc1C#N`, the “% Inhibition” value is -13% and the Z score came out at 2.5.

For the compound `O=C(O)[C@@H](c1ccc(-n2cccn2)cc1)N1CCN(c2ncccn2)CC1`, the “% Inhibition” value is recorded as -9% and the Z score turned out to be 0.79.

`CS(=O)(=O)N1N=C(c2cn(-c3ccccc3)nc2-c2ccccc2)C[C@H]1c1ccccc1`: the “% Inhibition” value is on record as -24% and the Z score is recorded as 2.8.

As for `O=C(CC1CCNCC1)NCC1CCCCCCC1`, the “% Inhibition” value is given as -10% and the Z score is recorded as 1.29.

As to `COc1ccc2c(c1)N(Cc1c[nH]nc1C)C[C@H](C)O2`, the “% Inhibition” value worked out at 0% and the Z score is reported as 0.03.

Regarding `Nc1c(C(=O)Nc2cccc(F)c2)sc(=S)n1Cc1ccccc1`, the “% Inhibition” value turned out to be 1% and the Z score is given as -0.15.

For `O=C(COCC(=O)N1CCN(c2ccccn2)CC1)N1CCCCCC1`, the “% Inhibition” value is given as -37% and the Z score worked out at 4.34.

With `CCC(CC)C(=O)NCc1cn([C@@H](C)C(=O)C2CC2)nn1`, the “% Inhibition” value is -6% and the Z score came to 0.68.

For `O=C([C@H]1CCc2nncn2C1)N1Cc2ccccc2C2(CCCC2)C1`, the “% Inhibition” value is given as -15% and the Z score is 1.86.

As to `O=C(NCc1cccc(F)c1F)[C@H]1CCC(=O)N(C2CCCCCC2)C1`, the “% Inhibition” value is -4% and the Z score was 0.54.

`COc1ncc(CN(C)[C@H]2CCN(Cc3ccccc3)C2)cn1`: the “% Inhibition” value was -4% and the Z score is 0.57.

On to `O=C(NCc1nccc(C(F)F)n1)[C@@H](c1ccccc1)N1CCCCC1=O`, for which the “% Inhibition” value is recorded as -2% and the Z score is recorded as 0.22.

As to `CCc1nc(CC)n(CCC(=O)Nc2cc(C)on2)n1`, the “% Inhibition” value is given as -7% and the Z score is listed as 0.88.

Regarding `O=c1[nH]c2cccc(N3CCN(Cc4ccncc4F)CC3)c2[nH]1`, the “% Inhibition” value is recorded as -5% and the Z score turned out to be 0.71.

`COC[C@@H]1CN(Cc2ccc(F)c(F)c2)C[C@H]1C(=O)NC1CC1`: the “% Inhibition” value is -1% and the Z score is 0.11.

Take `CCN(C)C[C@H]1CCN(C(=O)Nc2ccc3nn(C(C)C)cc3c2)C1`: the “% Inhibition” value was -10% and the Z score worked out at 1.

With `c1ccc(-n2ncc3c(N4CC[C@H](N5CCCC5)C4)ncnc32)cc1`, the “% Inhibition” value is 0% and the Z score is -0.02.

Take `COCCO/C(=N/C(=O)c1cccc(C(F)(F)F)c1)NC[C@H]1CCCO1`: the “% Inhibition” value is -5% and the Z score turned out to be 0.73.

For `CCCC[C@H](NC(=O)C(C)(C)N)c1cccnc1`, the “% Inhibition” value came to 9% and the Z score is on record as -1.3.

For the compound `Cc1c(C(C)NCC(=O)NC(C)(C#N)C2CC2)oc2ccccc12` (centres undefined), the “% Inhibition” value was -14% and the Z score came out at 1.62.

As for `Cc1cccc(N2CCN(C(=O)Cc3scnc3-c3cccs3)CC2)c1C`, the “% Inhibition” value was -1% and the Z score is on record as 0.07.

Take `CCOc1cc(CNCc2cnc(C)cn2)ccc1O[C@@H](C)CC`: the “% Inhibition” value is recorded as -13% and the Z score was determined as 1.76.

With `CC(=O)N[C@H](c1nc(Cn2cnc3ccccc32)no1)C(C)(C)C`, the “% Inhibition” value amounted to 0% and the Z score was determined as 0.07.

With `C[C@@H](c1ccccc1)N(CC(N)=O)CC1CCC1`, the “% Inhibition” value is recorded as 13% and the Z score is listed as -1.55.

For `Cc1c(CN2C[C@H]3CC(=O)NCCN(C)C(=O)c4cccn(c4=O)Cc4cn(nn4)[C@H]3C2)[nH]c2ccc(Cl)cc12`, the “% Inhibition” value is on record as -7% and the Z score is on record as 1.18.

As for `CC(C)(C)CNC(=O)C(C)(C)NCc1cccs1`, the “% Inhibition” value was -8% and the Z score is 1.43.

`Cc1ccn(-c2cc3c(cc2C(N)=O)OCO3)n1`: the “% Inhibition” value came out at 2% and the Z score is listed as -0.32.

Consider `CCc1nnc(C2(c3ccccc3Cl)CCOCC2)o1`, for which the “% Inhibition” value is 3% and the Z score is on record as -0.53.

Regarding `CCN1CC(CN(C)C(=O)NCC2COCCO2)Oc2ccccc21` (centres undefined), the “% Inhibition” value was determined as 1% and the Z score is -0.11.

Regarding `CCCCN(C)c1ccc2nnc(CCc3nc(-c4cccc(C)c4)no3)n2n1`, the “% Inhibition” value is recorded as -6% and the Z score is 0.91.
